# Where a name gives a salt, the structure may show the parent alone. The list shows a part of the results. Single values are uncertain, as repeats are few or missing.
# System: HeLa VPS33A KO + NLuc-VPS33A R498W
# Assay: relative mutant VPS33A R498W amount (NanoLuc luminescence) vs DMSO (fraction of DMSO); HeLa model of a glycosaminoglycan (GAG) storage disease; KI is knock-in and KO knock-out; SDC1 is syndecan 1; higher = higher mutant VPS33A level
# Settings: 50 µM; 24 h
# 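Further: screen of an FDA-approved drug library, NanoLuc luminescence read after lysing the treated cells, taken as a measure of mutant VPS33A protein stability.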
row,SMILES,relative mutant VPS33A R498W amount
1,Nc1nc2c(ncn2COC(CO)CO)c(=O)[nH]1 [Ganciclovir],1.39
2,Clc1cccc(Cl)c1NC1=NCCN1 [Clonidine HCl],1.1
3,Cc1ccc(O)c([C@H](CCN(C(C)C)C(C)C)c2ccccc2)c1 [Tolterodine tartrate],0.929
4,CNC(=O)c1ccccc1Sc1ccc2c(/C=C/c3ccccn3)n[nH]c2c1,1.28
5,C=C1[C@H](CO)[C@@H](O)C[C@@H]1n1cnc2c(=O)[nH]c(N)nc21 [Entecavir Hydrate],1.27
6,O=c1sn(-c2cccc3ccccc23)c(=O)n1Cc1ccccc1 [Tideglusib],1.32
7,NC[C@H]1O[C@H](O[C@H]2[C@H](O)[C@@H](O[C@H]3O[C@H](CO)[C@@H](O)[C@H](N)[C@H]3O)[C@H](N)C[C@@H]2N)[C@H](N)C[C@@H]1O [Tobramycin],1.07
8,Cc1cccn2c(=O)c(-c3nnn[nH]3)cnc12 [Pemirolast potassium],1.02
9,COc1cc(C(=O)NS(=O)(=O)c2ccccc2C)ccc1Cc1cn(C)c2ccc(NC(=O)OC3CCCC3)cc12 [Zafirlukast],0.217
10,O=C(O)c1cc(=O)c2ccccc2o1 [Chromocarb],1.21
11,CC[C@H]1OC(=O)C[C@@H](O)[C@H](C)[C@@H](O[C@@H]2O[C@H](C)[C@@H](O)[C@H](N(C)C)[C@H]2O)[C@@H](CCN2C[C@H](C)C[C@H](C)C2)C[C@@H](C)C(=O)/C=C/C(C)=C/[C@@H]1CO[C@@H]1O[C@H](C)[C@@H](O)[C@@H](OC)[C@H]1OC [Tilmicosin],0.748
12,CCCc1ncc(C[n+]2ccccc2C)c(N)n1 [Amprolium HCl],1.23
13,CCCN1CCCC[C@H]1C(=O)Nc1c(C)cccc1C [Ropivacaine HCl],1.19
14,CCCN[C@H]1CCc2nc(N)sc2C1 [Pramipexole dihydrochloride],1.45
15,CCn1cc(C(=O)O)c(=O)c2cc(F)c(N3CCNC(C)C3)c(F)c21 (stereo not given) [Lomefloxacin HCl],0.885
16,Cc1ncc([N+](=O)[O-])n1CC(O)CCl (stereo not given) [Ornidazole],0.988
17,O=C(CCCCCCNC(=O)c1cnc(N(c2ccccc2)c2ccccc2)nc1)NO [Rocilinostat (ACY-1215)],4.45
18,CNCCc1ccccn1 [Betahistine 2HCl],1.59
19,O=C(NS(=O)(=O)c1ccc(Br)s1)c1ccc(Cl)cc1Cl [Tasisulam],0.833
20,C[N+](C)(C)CCOP(=O)([O-])OC[C@H](O)CO [sn-Glycero-3-phosphocholine],0.674

row,SMILES,relative mutant VPS33A R498W amount
1,O=C(O[C@@H]1Cc2c(O)cc(O)cc2O[C@@H]1c1ccc(O)c(O)c1)c1cc(O)c(O)c(O)c1 [(-)-epicatechin gallate],1.19
2,O=S(=O)(O)Oc1ccc(C(c2ccc(OS(=O)(=O)O)cc2)c2ccccn2)cc1 [Sodium Picosulfate],1.21
3,CC[C@H]1OC(=O)[C@H](C)[C@@H](O[C@H]2C[C@@](C)(OC)[C@@H](O)[C@H](C)O2)[C@H](C)[C@@H](O[C@@H]2O[C@H](C)C[C@H](N(C)C)[C@H]2O)[C@](C)(O)C[C@@H](C)CN(C)[C@H](C)[C@@H](O)[C@]1(C)O [Azithromycin Dihydrate],1.07
4,CC(C)[C@H](N)C(=O)OCC(CO)OCn1cnc2c(=O)[nH]c(N)nc21 (stereo not given in full) [Valganciclovir HCl],1.65
5,O=C(O)[C@H]1OC(O)[C@H](O)[C@@H](O)[C@@H]1O (mixture of isomers) [glucuronate],1.21
6,Cc1cc(/C=C/C#N)cc(C)c1Nc1ccnc(Nc2ccc(C#N)cc2)n1 [Rilpivirine],0.511
7,O=C(O)CC(O)(CC(=O)O)C(=O)O [Citric acid],1.09
8,Nc1c2c(nc3ccccc13)CCCC2 [Tacrine hydrochloride],1.21
9,NC(=O)[C@@H]1CC[C@@H]2CN1C(=O)N2OS(=O)(=O)O [Avibactam sodium],1.37
10,C[C@@H]1O[C@@H](OC[C@H]2O[C@@H](Oc3c(-c4ccc(O)c(O)c4)oc4cc(O)cc(O)c4c3=O)[C@H](O)[C@@H](O)[C@@H]2O)[C@H](O)[C@H](O)[C@H]1O [Rutin],1.12
11,O=c1ccc2ccccc2o1 [Coumarin],1.35
12,CC(C(=O)O)c1ccc(-c2ccccc2)c(F)c1 (stereo not given) [Flurbiprofen],0.996
13,O=C(O)[C@H]1O[C@@H](Oc2cc3oc(-c4ccc(O)cc4)cc(=O)c3c(O)c2O)[C@H](O)[C@@H](O)[C@@H]1O [Scutellarin],1.78
14,O=c1n(CCCN2CCN(c3cccc(Cl)c3)CC2)nc2ccccn12 [Trazodone HCl],0.779
15,COc1c2ccoc2cc2oc(=O)ccc12 [5-Methoxypsoralen],0.885
16,O=C(O)[C@H](O)c1ccccc1 [R-(-)-Mandelic Acid],1.11
17,COc1ccc([C@H]2CNC(=O)C2)cc1OC1CCCC1 [S- (+)-Rolipram],0.93
18,NS(=O)(=O)c1cc2c(cc1Cl)N=CNS2(=O)=O [Chlorothiazide],1.13
19,CC(=O)Oc1cc(C(F)(F)F)ccc1C(=O)O [Triflusal],1.17
20,O=C(O)CCCC[C@@H]1SC[C@@H]2NC(=O)N[C@@H]21 [Biotin],0.676

# From the supplement of paper PMC12355420
